About 6,900 (2%) of roughly 340,000 compounds were called active. Rule as the data show it: active = inhibition above about 30%; inactive = below that, where a call was filed. Only a part is listed here, and it is no random draw. Where no call is shown, the source filed none.
Each molecule was assayed against D(2) dopamine receptor (Homo sapiens) (UniProt P14416) (assay: HTS Assay for Allosteric Antagonists of the Human D2 Dopamine Receptor: Primary Screen for Antagonists). Settings: HEK293 TREx D2 cells, calcium flux, dopamine EC80; at 10 µM; stronger effect = higher value.
UniProt P14416, sequence (P14416 whole entry, looked up): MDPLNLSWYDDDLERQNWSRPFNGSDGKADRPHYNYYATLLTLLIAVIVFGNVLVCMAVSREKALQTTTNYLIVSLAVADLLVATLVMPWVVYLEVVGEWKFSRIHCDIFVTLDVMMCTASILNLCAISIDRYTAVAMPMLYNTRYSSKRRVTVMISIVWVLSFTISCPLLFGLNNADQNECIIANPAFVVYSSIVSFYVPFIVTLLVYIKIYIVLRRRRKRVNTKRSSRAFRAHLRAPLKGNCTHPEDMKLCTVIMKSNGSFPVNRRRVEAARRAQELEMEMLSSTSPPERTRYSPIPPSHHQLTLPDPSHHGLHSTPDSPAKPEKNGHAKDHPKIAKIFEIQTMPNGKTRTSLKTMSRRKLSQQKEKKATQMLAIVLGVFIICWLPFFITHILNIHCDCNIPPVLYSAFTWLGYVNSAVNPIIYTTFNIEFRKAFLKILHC
Method in brief: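 Overnight-induced (tetracycline, 30 C) HEK293 T-REx cells carrying force-coupled D2 receive a no-wash calcium dye, then compound, then EC80 dopamine at 180 s; signals are read kinetically throughout.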
Also: 0% is about no effect.

Structure (SMILES)	inhibition
Nc1nc(Nc2ccccc2F)sc1C(=O)c1ccc(Cl)cc1	4.62%
O=C(c1ccccc1Cl)N1c2ncnn2C2(CCCCC2)[C@@H]2CCCC[C@@H]21	27.2%
COC(=O)c1ccc(OCC2c3cc(OC)c(OC)cc3CCN2C(=O)COc2ccc(Cl)cc2)cc1 (stereo not given)	15.1%
CN(C1=NC(=O)C(CC(=O)Nc2ccc(Br)cc2)S1)c1ccc(O)cc1 (stereo not given)	active: 40.4%
COc1ccc(Cc2nc3ccccc3[nH]c2=O)cc1	-5.59%
CCOC(=O)c1c(NC(=O)OC)sc(C(=O)N(C)C)c1C	active: 69.4%
C=Cc1ccc(Cn2c(C)c(CNCc3cccc(Br)c3)c(C(=O)O)c2C)cc1	15.3%
Cc1cccc(Cn2c(CNS(=O)(=O)c3ccc4c(c3)CCCC4)nc3cccnc32)c1	3.5%
Cc1c(Cl)cccc1-c1ccc(C(=O)Nc2ccc(F)cc2)o1	6.99%
COc1ccc(OC)c(-c2nnc3n(Cc4ccc(C)cc4)c(=O)c4ccccc4n23)c1	4.76%
CCN(CC)C(=O)CSc1nc(-c2ccccc2F)nc2c1Cc1c(CO)cnc(C)c1O2	-2.87%
CC(C)(C)OC(=O)N1CCC(c2c(C(=O)N3CCCCC3)cnn2-c2ccc(Cl)cc2)CC1	-1.15%
CCOc1cc(C(=O)NCCc2csc3nc(-c4ccc(C)cc4)nn23)cc(OCC)c1OCC	0.0618%
NC(=O)CC(NC(=O)Cc1cccc2ccccc12)c1ccc(NC2CCN(Cc3ccccc3)CC2)c([N+](=O)[O-])c1 (stereo not given)	active: 32.1%
Cc1ccc2oc3c(c(=O)c2c1)C(c1ccc(F)cc1)N(Cc1ccc2c(c1)OCO2)C3=O (stereo not given)	-5.77%
COc1ccccc1CCNC(=O)C(=O)NCC(c1ccc2c(c1)OCO2)N1CCOCC1 (stereo not given)	1.47%
CC(=O)c1cccc(NC(=O)c2sc(-n3nc(C)c(Cc4ccc5c(c4)OCO5)c3C)nc2C)c1	1.87%
COc1ccccc1OCC(=O)NCC(c1ccc(Cl)cc1)N1CCCCC1 (stereo not given)	20.9%
CCN(C(=O)C1CCN(S(=O)(=O)c2ccc3c(c2)CCCN3C(C)=O)CC1)c1cccc(C)c1	-14.3%
Cc1c(Cl)cccc1NC(=O)Cn1c(CCC(=O)O)ccc1-c1cccs1	16.1%
CCOC(=O)c1c(NC(C)=O)c2c3c(sc2n1Cc1nc(-c2cccc(Cl)c2)oc1C)CCCC3	4.95%
COc1ccc2c(c1)CCc1c(C(=O)Nc3c(C)nn(Cc4ccc(Cl)cc4)c3C)noc1-2	16.9%
CNS(=O)(=O)c1ccc(C(C)(C)C)cc1	active: 64.7%
O=C(O)CCC(=O)N1CCc2cc(S(=O)(=O)N3CCC(Cc4ccccc4)CC3)ccc21	active: 34%

Structure (SMILES)	inhibition
Cc1cccc(C)c1NC(=O)CCS(=O)(=O)c1ccc2c(c1)CC(C)N2C(=O)C1CC1 (stereo not given)	-14.9%
CCOc1ccc(NC(=O)Cn2nnc(C(=O)NCc3cccs3)c2N)cc1	23.4%
COc1ccc(/C=C\c2onc(C)c2S(=O)(=O)N2CCC(C(=O)Nc3cccc(C)c3C)CC2)cc1	0.37%
O=c1[nH]c2ccc(NCc3ccc(-c4ccc(Cl)cc4)o3)cc2[nH]1	-19.5%
CCOc1ccccc1Nc1nc(-c2ccc(C)cc2)c(CC(=O)O)s1	-6.6%
Cc1ccc(NC(=O)CN2C(=O)CC(c3ccc(F)cc3)=Nc3ccccc32)cc1F	10.9%
COc1ccc(CN(C(=O)Nc2cccc(OC)c2)C2CCN(C(C)=O)CC2)cc1	10.9%
COc1cccc(CNC(=O)CN2C(=O)N(c3c(C)cccc3C)S(=O)(=O)c3ccccc32)c1OC	-4.28%
COc1ccc(C2c3c(oc4ccc(Cl)cc4c3=O)C(=O)N2CCCN(C)C)cc1OC (stereo not given)	16.1%
COc1ccc(OC)c(NC(=O)C(C)n2nc(C)c3c(C)n(-c4ccccc4)nc3c2=O)c1 (stereo not given)	0.483%
Cc1nc(-n2nc(C)c(Cc3ccc(Cl)cc3)c2C)sc1C(=O)N1CCCCC1C (stereo not given)	-9.31%
Cc1ccc(C)c(Cn2c3ccccc3c3cnn(CC(=O)NCC(C)c4ccccc4)c(=O)c32)c1 (stereo not given)	4%
O=C(CSCc1ccccc1Cl)NCc1ccc(Cl)c(Cl)c1	0.883%
CCc1nnc(NC(=O)c2ccc(COc3ccc(C)cc3)o2)s1	active: 30.2%
CC1=C(C(=O)OCc2ccc3c(c2)OCO3)C(c2ccccc2)NC(=O)N1 (stereo not given)	active: 44.5%
O=C(COC(=O)/C=C/c1ccc(OC(F)F)cc1)NC1CCCC1	active: 32.2%
CC(=O)c1ccc(Nc2nc3ccccc3nc2-n2nc(C)cc2C)cc1	9.29%
CC(=O)c1cccc(NC(=O)Cn2c(=O)oc3cc(S(=O)(=O)NC4CCCC4)ccc32)c1	-0.264%
CC(=O)N1CCN(c2nc3c(C)ccc(Cl)c3s2)CC1	-25.2%
Oc1c(C(c2ccccc2Cl)N2CCOCC2)sc2nc(-c3ccco3)nn12 (stereo not given)	27%
CCC(=O)N1CCc2cc(CNC(=O)Nc3cc(C)ccc3C)ccc21	-14.9%
C/C=C/c1ccc(OCCCCN2CC(C)CC(C)C2)c(OC)c1 (stereo not given)	active: 38%
Cc1ccc(-c2nnc(Nc3ccc(Cl)c(Cl)c3)c3ccccc23)cc1S(=O)(=O)N(C)C	12.3%
COc1ccc(CCNS(=O)(=O)c2ccc(F)c(C(=O)Nc3ccc(Cl)cc3)c2)cc1OC	-21.5%

Structure (SMILES)	inhibition
Cc1cc(C)cc(NC(=O)c2ccc3c(O)c(S(=O)(=O)c4ccccc4)c(=O)[nH]c3c2)c1	-3.08%
O=C(Cc1c(F)cccc1Cl)Nc1cccc(S(=O)(=O)NC2=NCCCCC2)c1	active: 31.1%
COc1cc(Cl)c(C)cc1NC(=O)c1ccc(CN2C(=O)CCn3nc(C)cc32)cc1	-6.23%
Cc1c(Cl)cccc1NC(=O)CSc1ncc(S(=O)(=O)c2ccc(C(C)C)cc2)c(=O)[nH]1	7.35%
CCCCOC(=O)c1ccc(NC(=O)Cc2coc3c(C)c(C)ccc23)cc1	-5.12%
CCC1(C)N=C(N)Nc2nc3cc(C)c(C)cc3n21 (stereo not given)	active: 35.4%
CCOC(=O)c1c(C)[nH]c(C)c1S(=O)(=O)N1CCCC(C(=O)Nc2ccc(C)c(N(C)C)c2)C1 (stereo not given)	0.563%
CCNC(=O)C1CCCN(c2nnc(C)c3c(C)n(-c4ccc(C)cc4)nc23)C1 (stereo not given)	-7.6%
Cc1ccc(OCC(=O)N(Cc2ccco2)c2ccccn2)cc1	-12.3%
CCc1ccccc1NC(=O)Cc1cn(C)c2ccccc12	16.3%
O=C(Nc1c(O)c2ccccc2oc1=O)c1cccc(F)c1	-2.91%
Cc1ccc(Nc2ncnc3onc(C)c23)cc1Cl	6.76%
CCOc1ccc(S(=O)(=O)Nc2cccc(C)c2)c2cccnc12	-3.84%
CCn1cc(C(=O)N2CCN(c3ccccc3)CC2)c(=O)c2cc(S(=O)(=O)N3CCCC3)ccc21	7.65%
O=C(Cn1c(=O)nc(-c2ccccc2F)c2cc(Cl)ccc21)Nc1ccccc1C(F)(F)F	7.65%
Cc1ccc(-c2nc3nc(C)cc(N4CCN(c5cccc(C)c5)C(C)C4)n3n2)cc1 (stereo not given)	2.11%
COc1cc2oc(=O)c(CC(=O)NCCc3ccccc3F)c(C)c2cc1OC	3.54%
O=C(NCc1cccs1)c1nn(-c2ccccc2F)nc1CO	-7.3%
CCCCNC(=O)Cn1ncc2c(C)n(Cc3cccc(Cl)c3)c(C)c2c1=O	9.57%
CCCCN(C)CCCNC(=O)CN1C(=O)CSc2ccc(S(=O)(=O)N3CCOCC3)cc21	3.06%
COc1ccc(-c2nn(CC(=O)NCc3ccccc3)c3c2cnc2ccc(F)cc23)cc1	3.83%
COc1c(O)ccc2c1CN1CCc3cc4c(cc3C1C2)OCO4 (stereo not given)	active: 74.1%
COc1ccccc1C(=O)N1c2ccccc2C(C)(c2ccc(Cl)cc2)CC1(C)C (stereo not given)	-3.79%
Oc1c(Cl)cc(Cl)c2c1NCCC2	active: 39.2%

Structure (SMILES)	inhibition
COC(=O)CSc1nc2sc3c(c2c(=O)n1Cc1ccccc1)CCC(C(C)(C)C)C3 (stereo not given)	4.06%
CCc1ccc(CNC(=O)c2nn(-c3ccc(OC)c(Cl)c3)c(=O)c3c2c2ccccc2n3C)cc1	-14.4%
COc1ccc(-c2c3c(nc4sc(C(=O)Nc5ccccc5F)c(N)c24)CC(C)(C)CC3=O)cc1	17.4%
CCN(Cc1ccccc1)C(=O)CN1C(=O)CSc2ccc(S(=O)(=O)N(CC)CC)cc21	-3.85%
O=C(Nc1ccc(S(=O)(=O)N2CCCCC2c2cccnc2)cc1)c1ccc(F)cc1 (stereo not given)	5.76%
COc1ccc(NC(=O)c2cc(S(=O)(=O)N3CCCCC3)cn2C)cc1Cl	16.2%
CCCC(CCC)C(=O)Nc1nnc2n1CCS2	8.82%
CCc1nnc2c3ccccc3nc(Nc3ccc(F)c(Cl)c3)n12	-7.06%
O=C(Nc1ccc(Cl)cc1)c1cc2c(Cl)nc3ccccc3c2s1	20.7%
Cc1cccc(N(C)C(=O)c2cc(S(=O)(=O)N3CCCCC3)c[nH]2)c1	2.08%
CN(C)c1ccc(-c2noc(C3CC(=O)N(c4ccc5c(c4)OCCO5)C3)n2)cc1 (stereo not given)	12.6%
CCc1ccc(S(=O)(=O)c2nnn3c2nc(NCc2cccc(OC)c2)c2cc(Cl)ccc23)cc1	6.14%
COc1ccccc1CNC(=O)c1ccc2c(c1)nnn2C1CCCC1	-1.17%
Cc1ccc(NC(=O)N2CCN3CCCCC3C2)cc1F (stereo not given)	-2.78%
Cc1ccsc1CN(C(=O)c1ccc(Br)cc1)C1CCS(=O)(=O)C1 (stereo not given)	-0.457%
O=C(Nc1cccc(-c2nc3ccccc3[nH]2)c1)c1ccccc1F	9.07%
COc1ccccc1NC(=O)Cn1cc(C(=O)c2ccncc2)c(=O)c2cc(C)ccc21	7.72%
Cc1cc(=O)[nH]c2nnc(SCC(=O)Nc3ccc(F)cc3F)n12	16.9%
COc1ccc(Cl)cc1NC(=O)C1CCN(S(=O)(=O)c2ccc3c(c2)CCCN3C(=O)C2CCC2)CC1	23%
C=CCc1ccccc1OCCn1c(C2CC(=O)N(Cc3ccc(F)cc3)C2)nc2ccccc21 (stereo not given)	24.9%
Cc1ccc2nc(-c3cccc(Cl)c3)c(Nc3ccc4c(c3)OCO4)n2c1	-5.06%
Cc1ccc(C)c(NC(=O)N2CCc3cc(S(=O)(=O)N4CCC(C)CC4)ccc32)c1	6.41%
COc1ccccc1CCNC(=O)C(=O)NCC(c1cccs1)S(=O)(=O)c1ccc(F)cc1 (stereo not given)	10.1%
